Experimental findings from paper PMC4336329 (PLoS ONE, 2015) are described below.

Structures are written as SMILES. The whole screen tested about 310,000 compounds, of which about 2,200 (0.71%) showed an effect of 50% or more. Effects have a minus sign here. This is one part of the list.

human ether-à-go-go-related gene (hERG) potassium channel, sequence (Q12809 whole entry, looked up): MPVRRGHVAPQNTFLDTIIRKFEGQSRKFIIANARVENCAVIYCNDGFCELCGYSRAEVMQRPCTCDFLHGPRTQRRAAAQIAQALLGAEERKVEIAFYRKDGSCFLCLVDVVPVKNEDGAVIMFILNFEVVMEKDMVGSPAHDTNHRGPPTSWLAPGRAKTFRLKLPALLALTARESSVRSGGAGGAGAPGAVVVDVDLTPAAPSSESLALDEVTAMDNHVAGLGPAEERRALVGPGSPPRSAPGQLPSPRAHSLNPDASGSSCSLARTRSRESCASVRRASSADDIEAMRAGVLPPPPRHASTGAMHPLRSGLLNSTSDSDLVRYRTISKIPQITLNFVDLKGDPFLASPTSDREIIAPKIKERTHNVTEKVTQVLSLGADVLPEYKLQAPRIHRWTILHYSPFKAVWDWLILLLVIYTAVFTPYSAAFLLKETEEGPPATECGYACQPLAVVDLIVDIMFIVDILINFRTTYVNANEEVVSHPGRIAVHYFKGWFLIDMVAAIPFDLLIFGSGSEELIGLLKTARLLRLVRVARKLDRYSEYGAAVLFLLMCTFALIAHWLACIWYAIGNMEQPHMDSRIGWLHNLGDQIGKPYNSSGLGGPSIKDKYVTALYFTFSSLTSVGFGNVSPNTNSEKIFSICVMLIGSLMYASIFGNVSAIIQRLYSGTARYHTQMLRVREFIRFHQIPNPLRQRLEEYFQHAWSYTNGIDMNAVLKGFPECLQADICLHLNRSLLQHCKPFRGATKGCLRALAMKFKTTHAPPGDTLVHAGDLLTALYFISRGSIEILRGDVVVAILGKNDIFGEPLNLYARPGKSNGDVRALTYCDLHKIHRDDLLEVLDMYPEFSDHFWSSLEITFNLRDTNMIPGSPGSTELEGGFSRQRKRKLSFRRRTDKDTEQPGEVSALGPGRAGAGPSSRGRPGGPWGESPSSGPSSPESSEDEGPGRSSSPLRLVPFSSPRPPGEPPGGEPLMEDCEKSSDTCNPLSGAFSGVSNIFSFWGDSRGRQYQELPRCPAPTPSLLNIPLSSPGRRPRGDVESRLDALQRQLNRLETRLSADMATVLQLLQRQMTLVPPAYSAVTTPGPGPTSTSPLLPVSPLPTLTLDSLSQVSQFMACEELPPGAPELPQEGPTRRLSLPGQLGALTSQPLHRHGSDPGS

The assay has as its target human ether-à-go-go-related gene (hERG) potassium channel (human, UniProt Q12809). Nature of the assay: primary screen, population patch clamp on CHO cells stably expressing hERG.
Turning to `CC(OC(=O)c1nccnc1N)C(=O)Nc1ccc(S(=O)(=O)N2CCCC2)cc1` (stereo not drawn), the “hERG current change (%, negative = inhibition) at 1uM” value was 7.6%.
The figure for `CCCOc1cccc(C2C(C(=O)c3ccc(C)o3)=C(O)C(=O)N2c2nc(C)c(C(C)=O)s2)c1` (stereo not drawn) is 15.9%.
For the compound `O=C(CSc1nnc(-c2cccs2)o1)N1CCCc2ccccc21`, the “hERG current change (%, negative = inhibition) at 1uM” value was 5.71%.
In the case of `Cc1ccc(S(=O)(=O)N(C)c2ccc(C(=O)NCc3ccccc3F)cc2)cc1`, the “hERG current change (%, negative = inhibition) at 1uM” value is reported as 9.63%.
In the case of `CCOC(=O)c1oc2ccc(CNCCO)c(Cl)c2c1C`, the “hERG current change (%, negative = inhibition) at 1uM” value was found to be 12.9%.
`CCSc1nc(O)cc(=O)n1CC`: the “hERG current change (%, negative = inhibition) at 1uM” value stood at 9.67%.
Regarding `CCOC(=O)/C(=N\Nc1cccc(C(F)(F)F)c1)N1CCOCC1`, the “hERG current change (%, negative = inhibition) at 1uM” value is given as 7.97%.
The figure for `CCCCOCCCNC(=O)c1c(-c2ccccc2)noc1C` is 9.79%; for `C=CCc1ccc(OCc2ccc(C(=O)O)o2)c(OC)c1` it is 17.7%.
In the case of `Cc1cc(C)n(-c2ccc(F)cc2CN2CCN(Cc3ccccc3)C(CCO)C2)n1` (stereo not drawn), the “hERG current change (%, negative = inhibition) at 1uM” value was -14.3%.
The figure for `Cc1cccc(-n2c(C)nc3sccc3c2=O)c1` is 19.8%; for `C[n+]1ccccc1/C=C1\Sc2ccccc2N1CCO.[I-]` it is 6.6%; for `COc1ccc(COC(=O)C2CCN(S(=O)(=O)c3ccc(Cl)cc3)CC2)cc1` it is 20.4%.
The figure for `CCc1nc(SCC(=O)c2ccccc2)c2ccccc2n1` is 8.99%; for `O=C(Nc1ccc(F)cc1)N1CCN(C(=O)C2CCCO2)CC1` (stereo not drawn) it is 9.04%.
The figure for `COc1ccc(S(=O)(=O)/N=C2\C=C(NS(=O)(=O)c3ccccc3)C(=O)c3ccccc32)cc1` is 8.41%; for `O=C(Nc1ccccc1)c1cn(CCBr)cn1` it is 14%; for `COC(=O)Oc1c(Br)c(=O)oc2ccccc12` it is 12.6%.
For the compound `CC1=C(C)/C(=N\OS(=O)(=O)c2ccccc2)C=CC1=O`, the “hERG current change (%, negative = inhibition) at 1uM” value is reported as 2.08%.
The figure for `O=C(NC1CCCCC1)C(c1ccc(F)cc1)N(CCc1ccccc1)C(=O)CN1C(=O)c2ccccc2S1(=O)=O` (stereo not drawn) is 16.3%; for `Cc1nc(N2CCC(C)CC2)c2nnn(Cc3ccccc3)c2n1` it is 11.6%.
The figure for `CN(C)S(=O)(=O)c1cccc(NC(=S)N2CCCCC2CO)c1` (stereo not drawn) is 3.32%; for `Cc1ccccc1-n1c(SCC(=O)c2c(N)n(C)c(=O)n(C)c2=O)nc2sc3c(c2c1=O)CCCC3` it is 26.3%.
The figure for `COc1cc2ccccc2cc1C(=O)Nc1cccnc1` is 1.3%; for `Cn1c(=O)c2cc(S(=O)(=O)NCCC(=O)NC3CCCCCCC3)ccc2n(C)c1=O` it is -3.28%; for `O=C(COc1ccc(F)c(Cl)c1)N1CCCCCCC1` it is 16%.
Regarding `O=C(OC1CCOC1=O)c1ccc2ncsc2c1` (stereo not drawn), the “hERG current change (%, negative = inhibition) at 1uM” value was 6.14%.
With `Cc1n[nH]c(C)c1CCc1nc2c3ccccc3nc(SCC(=O)Nc3ccccc3F)n2n1` the figure was 8.59%; with `COc1cc(C(=O)NCCCNc2ccc([N+](=O)[O-])cc2)cc(OC)c1OC`, -24.6%; with `COc1ccc(C(=O)NNC(=O)C2CCCN(C3CC(=O)N(c4ccccc4)C3=O)C2)cc1` (stereo not drawn), 9.55%.
Take `C=CCNC(=O)/C(=C\c1ccc([N+](=O)[O-])cc1)NC(C)=O`: the “hERG current change (%, negative = inhibition) at 1uM” value is recorded as 8.68%.
In the case of `CCN(CC(=O)NCc1cccs1)C(=O)CCC(=O)c1ccc(C)cc1`, the “hERG current change (%, negative = inhibition) at 1uM” value is -15.9%.
Take `Cc1ccc(NC(=O)CSCC(=O)NC2=NCCS2)cc1`: the “hERG current change (%, negative = inhibition) at 1uM” value turned out to be 2.84%.
With `COC(=O)CSc1nc2c(c(=O)[nH]c(=O)n2C)n1CCC(C)C` the figure was -0.966%; with `C=CCn1c(C)c(C(=O)OCC)c2cc(O)c3ccccc3c21`, 6.27%; with `OCC1(Cc2cccc(Cl)c2)CCCN(Cc2ccc3cc(F)ccc3n2)C1` (stereo not drawn), -1.37%.
Regarding `CCCOCC(O)CCc1n[nH]c(=S)n1-c1ccccc1` (stereo not drawn), the “hERG current change (%, negative = inhibition) at 1uM” value was 24.6%.
With `Cc1ccc(NC(=O)c2ccc(NC(=O)c3ccccc3)cc2)cc1C`, the “hERG current change (%, negative = inhibition) at 1uM” value is reported as -0.468%.
With `C=CCn1c(COc2ccccc2)nnc1SCC(=O)Nc1ccc(S(N)(=O)=O)cc1` the figure was 8.92%; with `O=C(/C=C/c1ccc2c(c1)OCO2)Nc1ccc(Cl)cn1`, 10.6%.
For the compound `O=C(CCc1nnc(CCC2CCCCC2)o1)NCCc1ccccn1`, the “hERG current change (%, negative = inhibition) at 1uM” value was -9.12%.
The figure for `CC(CNC(=O)CN1C(=O)COc2ccc(S(=O)(=O)N3CCCCC3)cc21)c1ccccc1` (stereo not drawn) is 22.4%; for `CS(=O)(=O)c1ccc(-n2c(=O)n(Cc3ccccc3)c(=O)c3[nH]cnc32)cc1` it is 4.73%; for `O=C(Nc1cccc([N+](=O)[O-])c1)c1ccn[nH]1` it is 17.3%.
Turning to `Cc1cc(C)n2c(=S)[nH]nc2n1`, the “hERG current change (%, negative = inhibition) at 1uM” value was 12.9%.
